Reference: patent US20150104450A1 (AstraZeneca / MedImmune, published 2015)

What was measured:
[1] = molecular target: T1, CD80 (B7-1) expressed on Raji cells (UniProt P33681 35-288); assay: cell-based or functional assay
T1 sequence (looked up): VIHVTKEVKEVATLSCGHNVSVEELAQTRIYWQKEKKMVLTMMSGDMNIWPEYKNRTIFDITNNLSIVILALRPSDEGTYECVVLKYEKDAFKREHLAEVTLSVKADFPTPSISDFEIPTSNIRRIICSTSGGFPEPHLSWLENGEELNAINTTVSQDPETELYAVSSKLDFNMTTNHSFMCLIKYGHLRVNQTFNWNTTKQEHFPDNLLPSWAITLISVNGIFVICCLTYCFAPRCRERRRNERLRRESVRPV

[2] = molecular target: T2, CD86 (B7-2) expressed on Raji cells (UniProt P42081 24-329); assay: cell-based or functional assay
T2 sequence (looked up): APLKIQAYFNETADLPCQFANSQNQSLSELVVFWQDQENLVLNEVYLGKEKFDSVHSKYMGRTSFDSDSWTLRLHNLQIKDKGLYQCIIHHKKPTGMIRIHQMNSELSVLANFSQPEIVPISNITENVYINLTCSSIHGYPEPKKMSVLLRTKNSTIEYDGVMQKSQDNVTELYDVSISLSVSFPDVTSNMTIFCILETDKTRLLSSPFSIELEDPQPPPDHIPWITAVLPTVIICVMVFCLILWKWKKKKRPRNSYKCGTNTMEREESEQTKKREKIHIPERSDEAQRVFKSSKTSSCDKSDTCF

[3] = molecular target: T3, human CD80 extracellular domain with FLAG 10xhis tag (human); assay: SPR, as described in the filing
T3 construct: The printed range 1-242 counts on the Swiss-Prot entry and includes the leader; Tag placed C-terminal by inference; also called human CD80 ligand
T3 chain: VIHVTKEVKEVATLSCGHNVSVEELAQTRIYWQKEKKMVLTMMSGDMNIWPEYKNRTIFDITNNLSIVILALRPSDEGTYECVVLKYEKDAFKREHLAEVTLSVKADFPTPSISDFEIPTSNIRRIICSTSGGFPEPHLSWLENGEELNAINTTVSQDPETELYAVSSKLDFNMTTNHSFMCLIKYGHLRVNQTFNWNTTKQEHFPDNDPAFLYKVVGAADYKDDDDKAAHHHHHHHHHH

[4] = molecular target: T3, human CD80 extracellular domain with …; assay: SPR (Biacore 2000), ratio of KD
[5] = molecular target: T4, cynomolgus monkey CD80 extracellular domain with FLAG 10xhis tag (cynomolgus monkey); assay: SPR (Biacore 2000), ratio of KD
T4 construct: Printed range includes the leader; Tag placed C-terminal by inference; also called Cyno; CD80
T4 chain: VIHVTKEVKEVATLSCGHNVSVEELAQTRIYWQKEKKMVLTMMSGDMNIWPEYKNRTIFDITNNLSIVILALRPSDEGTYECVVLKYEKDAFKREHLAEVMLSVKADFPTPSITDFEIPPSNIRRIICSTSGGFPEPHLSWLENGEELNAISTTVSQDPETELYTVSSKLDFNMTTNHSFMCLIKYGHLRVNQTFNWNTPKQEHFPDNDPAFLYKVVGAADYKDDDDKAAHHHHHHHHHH

[6] = molecular target: T5, mouse CD80 extracellular domain with FLAG 10xhis tag (mouse); assay: SPR (Biacore 2000), ratio of KD
T5 construct: Printed range includes the leader; Tag placed C-terminal by inference
T5 chain: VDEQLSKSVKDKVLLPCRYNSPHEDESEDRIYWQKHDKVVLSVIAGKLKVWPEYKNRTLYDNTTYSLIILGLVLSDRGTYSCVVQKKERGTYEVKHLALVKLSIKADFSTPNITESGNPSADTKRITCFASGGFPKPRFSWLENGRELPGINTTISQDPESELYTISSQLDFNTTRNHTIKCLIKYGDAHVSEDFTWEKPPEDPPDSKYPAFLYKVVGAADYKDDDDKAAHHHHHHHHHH

[7] = molecular target: T6, mouse CD86 extracellular domain with FLAG 10xhis tag (mouse); assay: SPR (Biacore 2000), ratio of KD
T6 construct: Printed range includes the leader; Tag placed C-terminal by inference
T6 chain: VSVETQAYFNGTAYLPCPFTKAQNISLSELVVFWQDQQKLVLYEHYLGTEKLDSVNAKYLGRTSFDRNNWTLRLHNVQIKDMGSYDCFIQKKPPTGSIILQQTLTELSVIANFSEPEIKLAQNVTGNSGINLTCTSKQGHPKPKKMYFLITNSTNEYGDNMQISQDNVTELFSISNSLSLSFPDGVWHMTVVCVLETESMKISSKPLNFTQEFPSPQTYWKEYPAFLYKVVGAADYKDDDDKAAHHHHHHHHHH

[8] = molecular target: T3, human CD80 extracellular domain with …; assay: SPR (Biacore 2000), CTLA-4-Fc amine-coupled to CM5, ligand ECD as analyte, monovalent affinity
[9] = molecular target: T4, cynomolgus monkey CD80 extracellular …; assay: as above
[10] = molecular target: T5, mouse CD80 extracellular domain with …; assay: as above
[11] = molecular target: T6, mouse CD86 extracellular domain with …; assay: as above

B1: wild type CTLA-4 (SEQ ID NO: 35) in Fc fusion format (Fc fusion)
chain: not shown
notes: also called CTLA-4 wild type Fc fusion protein
[1]
  Fold Improvement over Wild Type (SEQ ID NO: 35), Raji/Jurkat IC50: 1 fold
[2]
  Fold Improvement over Wild Type (SEQ ID NO: 35), Raji/Jurkat IC50: 1 fold
[3]
  fold greater affinity for binding CD80 than for binding CD86: ~4 fold
[4]
  fold-improvement in affinity over wild type CTLA-4 in Fc fusion format: 1 fold
[5]
  fold-improvement in affinity over wild type CTLA-4 in Fc fusion format: 1 fold
[6]
  fold-improvement in affinity over wild type CTLA-4 in Fc fusion format: 1 fold
[7]
  fold-improvement in affinity over wild type CTLA-4 in Fc fusion format: 1 fold
[8]
  Kd: 1540 nM
[9]
  Kd: 1550 nM
[10]
  Kd: 2950 nM
[11]
  Kd: 5550 nM

B2: CTLA-4 Variant 1114 in Fc fusion format (Fc fusion)
chain: MHVAQPAVVLASSRGRASFVCEYANPGKATEVRVTVLRQADSQVTEVCAATYMMGNEGTFLDDSICTGTTSGNQVNLTIQGLRAKDTGLYICQVELMYPPPYYLGIGNGTQIYVIDPEPCPDSDV[letters of human IgG1 Fc omitted]
[1]
  Fold Improvement over Wild Type (SEQ ID NO: 35), Raji/Jurkat IC50: 21 fold
  Raji/Jurkat Dual Cell Assay IC50 (IL-2 release): 1.4 nM
[2]
  Fold Improvement over Wild Type (SEQ ID NO: 35), Raji/Jurkat IC50: 21 fold
  Raji/Jurkat Dual Cell Assay IC50 (IL-2 release): 1.4 nM
[4]
  fold-improvement in affinity over wild type CTLA-4 in Fc fusion format: 37 fold
[5]
  fold-improvement in affinity over wild type CTLA-4 in Fc fusion format: 40 fold
[6]
  fold-improvement in affinity over wild type CTLA-4 in Fc fusion format: 1 fold
[7]
  fold-improvement in affinity over wild type CTLA-4 in Fc fusion format: 1 fold
[8]
  Kd: 42 nM
[9]
  Kd: 39 nM
[10]
  Kd: 2170 nM
[11]
  Kd: 4860 nM

B3: CTLA-4 Variant 1115 in Fc fusion format (Fc fusion)
chain: MHVAQPAVVLASSRGVASFVCEYANPGKATEVRVTVLRQADSQVTEVCAATYMMGNEGTFLDDSICTGTASGNQVNLTIQGLRAQDTGLYICQVELMYPPPYYLGIGNGTQIYVIDPEPCPDSDV[letters of human IgG1 Fc omitted]
[1]
  Fold Improvement over Wild Type (SEQ ID NO: 35), Raji/Jurkat IC50: 67 fold
  Raji/Jurkat Dual Cell Assay IC50 (IL-2 release): 0.44 nM
[2]
  Fold Improvement over Wild Type (SEQ ID NO: 35), Raji/Jurkat IC50: 67 fold
  Raji/Jurkat Dual Cell Assay IC50 (IL-2 release): 0.44 nM
[4]
  fold-improvement in affinity over wild type CTLA-4 in Fc fusion format: 77 fold
[5]
  fold-improvement in affinity over wild type CTLA-4 in Fc fusion format: 86 fold
[8]
  Kd: 20 nM
[9]
  Kd: 18 nM

B4: CTLA-4 Variant 1227 in Fc fusion format (Fc fusion)
chain: MHVAQPAVVLASSRGSASFVCEYANPSKATEVRVTVLRQADSQVTEVCAATYMMGNEATFLDDSICTGTASGNQVNLTIQGLRAQDTGLYICHVELMYPPPYYLGIGNGTQIYVIDPEPCPDSDV[letters of human IgG1 Fc omitted]
[1]
  Fold Improvement over Wild Type (SEQ ID NO: 35), Raji/Jurkat IC50: 19 fold
  Raji/Jurkat Dual Cell Assay IC50 (IL-2 release): 1.6 nM
[2]
  Fold Improvement over Wild Type (SEQ ID NO: 35), Raji/Jurkat IC50: 19 fold
  Raji/Jurkat Dual Cell Assay IC50 (IL-2 release): 1.6 nM
[4]
  fold-improvement in affinity over wild type CTLA-4 in Fc fusion format: 140 fold
[5]
  fold-improvement in affinity over wild type CTLA-4 in Fc fusion format: 172 fold
[8]
  Kd: 11 nM
[9]
  Kd: 9 nM

B5: CTLA-4 Variant 1299 in Fc fusion format (Fc fusion)
chain: MHVAQPAVVLASSRGRASFVCEYTNPSKATEVRVTVLRQADSQVTEVCAATYMMGNEATFLDDSICTGTASGNQVNLTIQGLRAQDTGLYICQVELMYPPPYYLGIGNGTQIYVIDPEPCPDSDV[letters of human IgG1 Fc omitted]
notes: deposit NCIMB 41948
[1]
  Fold Improvement over Wild Type (SEQ ID NO: 35), Raji/Jurkat IC50: 56 fold
  Raji/Jurkat Dual Cell Assay IC50 (IL-2 release): 0.53 nM
[2]
  Fold Improvement over Wild Type (SEQ ID NO: 35), Raji/Jurkat IC50: 56 fold
  Raji/Jurkat Dual Cell Assay IC50 (IL-2 release): 0.53 nM
[4]
  fold-improvement in affinity over wild type CTLA-4 in Fc fusion format: 128 fold
[5]
  fold-improvement in affinity over wild type CTLA-4 in Fc fusion format: 155 fold
[8]
  Kd: 12 nM
[9]
  Kd: 10 nM

B6: CTLA-4 Variant 1315 in Fc fusion format (Fc fusion)
chain: MHVAQPAVVLASSRGSASFVCEYANPGKATEVRVTVLRQADSQVTEVCAATYMMGNEGTFLDDSICTGTASGNQVNLTIRGLRASDTGLYICQVELMYPPPYYLGIGNGTQIYVIDPEPCPDSDV[letters of human IgG1 Fc omitted]
[1]
  Fold Improvement over Wild Type (SEQ ID NO: 35), Raji/Jurkat IC50: 123 fold
  Raji/Jurkat Dual Cell Assay IC50 (IL-2 release): 0.24 nM
[2]
  Fold Improvement over Wild Type (SEQ ID NO: 35), Raji/Jurkat IC50: 123 fold
  Raji/Jurkat Dual Cell Assay IC50 (IL-2 release): 0.24 nM
[4]
  fold-improvement in affinity over wild type CTLA-4 in Fc fusion format: 77 fold
[5]
  fold-improvement in affinity over wild type CTLA-4 in Fc fusion format: 91 fold
[8]
  Kd: 20 nM
[9]
  Kd: 17 nM

B7: CTLA-4 Variant 1321 in Fc fusion format (Fc fusion)
chain: MHVAQPAVVLASSRGSASFVCEYANPGKATEVRVTVLRQADSQVTEVCAATYMKGNEGTFLDDSICTGTASGNQVNLTIRGLRASDTGLYICQVELMYPPPYYLGIGNGTQIYVIDPEPCPDSDV[letters of human IgG1 Fc omitted]
[1]
  Fold Improvement over Wild Type (SEQ ID NO: 35), Raji/Jurkat IC50: 68 fold
  Raji/Jurkat Dual Cell Assay IC50 (IL-2 release): 0.44 nM
[2]
  Fold Improvement over Wild Type (SEQ ID NO: 35), Raji/Jurkat IC50: 68 fold
  Raji/Jurkat Dual Cell Assay IC50 (IL-2 release): 0.44 nM
[4]
  fold-improvement in affinity over wild type CTLA-4 in Fc fusion format: 67 fold
[5]
  fold-improvement in affinity over wild type CTLA-4 in Fc fusion format: 82 fold
[8]
  Kd: 23 nM
[9]
  Kd: 19 nM

B8: CTLA-4 Variant 1322 in Fc fusion format (Fc fusion)
chain: MHVAQPAVVLASSRGIASFVCEYANPSKATEVRVTVLRQADSQVTEVCAATYMKGSELSTQDYPNCTGTSSGNQVNLTIQGLRAMDTGLYICQVELMYPPPYYLGIGNGTQIYVIDPEPCPDSDV[letters of human IgG1 Fc omitted]
[1]
  Fold Improvement over Wild Type (SEQ ID NO: 35), Raji/Jurkat IC50: 91 fold
  Raji/Jurkat Dual Cell Assay IC50 (IL-2 release): 0.33 nM
[2]
  Fold Improvement over Wild Type (SEQ ID NO: 35), Raji/Jurkat IC50: 91 fold
  Raji/Jurkat Dual Cell Assay IC50 (IL-2 release): 0.33 nM
[4]
  fold-improvement in affinity over wild type CTLA-4 in Fc fusion format: 193 fold
[5]
  fold-improvement in affinity over wild type CTLA-4 in Fc fusion format: 258 fold
[8]
  Kd: 8 nM
[9]
  Kd: 6 nM
